Data taken from paper PMC11911400, “Mechanism of ASF1 engagement by CDAN1” (Nature Communications, 2025).
These are yes or no findings as the source states them, for the method shown. In cells and extracts the contact can be indirect. Some results given as binding are weak or reduced against the parent protein; the word gives no strength.

By UniProt entry, the sequences of proteins in these tests, tags left out. Where a name states a change or a piece, a line headed by the entry shows the natural chain unless it says otherwise. Chains listed by the source or under a name are the forms on record and can include a tag or linker.
UniProt Q9NVP2: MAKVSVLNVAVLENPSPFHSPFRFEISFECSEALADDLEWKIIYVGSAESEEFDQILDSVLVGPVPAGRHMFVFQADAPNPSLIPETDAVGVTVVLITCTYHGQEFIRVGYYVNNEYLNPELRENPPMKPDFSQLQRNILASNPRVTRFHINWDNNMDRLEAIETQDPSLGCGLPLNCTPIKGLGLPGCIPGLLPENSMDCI
FLAG-ASF1B N > A (ASF1B with the NTD of ASF1A) (Q9NVP2, form named): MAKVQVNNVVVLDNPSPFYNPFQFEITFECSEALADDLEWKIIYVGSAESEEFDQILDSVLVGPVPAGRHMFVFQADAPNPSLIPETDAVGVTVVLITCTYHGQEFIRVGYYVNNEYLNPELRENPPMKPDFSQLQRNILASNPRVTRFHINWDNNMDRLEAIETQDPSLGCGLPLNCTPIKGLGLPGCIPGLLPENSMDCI
UniProt Q9Y294: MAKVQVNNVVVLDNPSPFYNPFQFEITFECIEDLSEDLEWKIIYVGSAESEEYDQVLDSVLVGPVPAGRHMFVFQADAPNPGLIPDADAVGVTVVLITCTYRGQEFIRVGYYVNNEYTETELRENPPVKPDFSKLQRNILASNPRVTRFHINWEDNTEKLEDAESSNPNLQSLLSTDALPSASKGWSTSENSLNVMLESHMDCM
FLAG-ASF1A N > B (ASF1A with the NTD of ASF1B) (Q9Y294, form named): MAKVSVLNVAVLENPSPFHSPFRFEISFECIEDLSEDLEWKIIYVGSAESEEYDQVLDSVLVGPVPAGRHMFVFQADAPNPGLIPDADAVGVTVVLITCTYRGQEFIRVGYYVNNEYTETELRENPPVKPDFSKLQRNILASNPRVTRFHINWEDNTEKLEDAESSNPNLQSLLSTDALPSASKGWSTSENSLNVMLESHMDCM

Legend:
[1] = target: T1, HMHA1* BDA1* ST-CDAN1 (human) (UniProt Q8IWY9); assay: pull-down; Strep-Tactin pulldown of ST-CDAN1 variants co-transfected with FLAG-tagged ASF1A or ASF1B variants in Flp-In 293 T-REx cells; immunoblotting; IP buffer with 1% Triton X-100, 1 hr at 4 °C
T1 sequence: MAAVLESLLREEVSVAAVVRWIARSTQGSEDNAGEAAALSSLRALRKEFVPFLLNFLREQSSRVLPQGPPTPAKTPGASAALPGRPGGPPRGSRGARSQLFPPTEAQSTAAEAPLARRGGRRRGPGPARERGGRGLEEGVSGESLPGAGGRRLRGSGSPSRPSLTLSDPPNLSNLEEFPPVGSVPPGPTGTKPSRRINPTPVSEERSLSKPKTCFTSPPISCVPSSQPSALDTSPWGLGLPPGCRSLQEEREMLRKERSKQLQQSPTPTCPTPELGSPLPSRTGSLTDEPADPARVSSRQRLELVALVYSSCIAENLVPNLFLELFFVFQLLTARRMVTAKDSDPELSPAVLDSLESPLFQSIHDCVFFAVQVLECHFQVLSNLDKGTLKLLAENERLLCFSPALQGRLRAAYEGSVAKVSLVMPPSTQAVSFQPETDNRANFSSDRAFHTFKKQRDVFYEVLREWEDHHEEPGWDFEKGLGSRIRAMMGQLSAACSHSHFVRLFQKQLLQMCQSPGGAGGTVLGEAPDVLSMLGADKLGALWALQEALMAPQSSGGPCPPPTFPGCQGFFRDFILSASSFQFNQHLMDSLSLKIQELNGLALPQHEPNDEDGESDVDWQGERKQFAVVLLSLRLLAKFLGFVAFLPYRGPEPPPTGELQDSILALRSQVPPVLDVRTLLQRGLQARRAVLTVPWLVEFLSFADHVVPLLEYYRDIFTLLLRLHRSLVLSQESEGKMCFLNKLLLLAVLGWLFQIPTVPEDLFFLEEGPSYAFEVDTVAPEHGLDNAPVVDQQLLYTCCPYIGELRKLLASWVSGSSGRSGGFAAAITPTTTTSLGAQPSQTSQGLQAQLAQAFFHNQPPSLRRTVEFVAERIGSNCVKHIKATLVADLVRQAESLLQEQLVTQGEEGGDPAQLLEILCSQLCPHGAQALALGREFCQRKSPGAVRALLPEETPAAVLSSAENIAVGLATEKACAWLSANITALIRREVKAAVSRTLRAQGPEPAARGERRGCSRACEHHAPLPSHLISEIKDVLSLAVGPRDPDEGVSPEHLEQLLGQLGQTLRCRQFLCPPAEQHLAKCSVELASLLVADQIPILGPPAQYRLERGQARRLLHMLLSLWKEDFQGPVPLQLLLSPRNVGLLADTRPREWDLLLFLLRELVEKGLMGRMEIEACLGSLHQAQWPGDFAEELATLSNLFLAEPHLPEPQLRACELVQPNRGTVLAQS

[2] = target: T2, HMHA2* BDA2* ST-CDAN1 (human) (UniProt Q8IWY9); assay: as above
T2 sequence: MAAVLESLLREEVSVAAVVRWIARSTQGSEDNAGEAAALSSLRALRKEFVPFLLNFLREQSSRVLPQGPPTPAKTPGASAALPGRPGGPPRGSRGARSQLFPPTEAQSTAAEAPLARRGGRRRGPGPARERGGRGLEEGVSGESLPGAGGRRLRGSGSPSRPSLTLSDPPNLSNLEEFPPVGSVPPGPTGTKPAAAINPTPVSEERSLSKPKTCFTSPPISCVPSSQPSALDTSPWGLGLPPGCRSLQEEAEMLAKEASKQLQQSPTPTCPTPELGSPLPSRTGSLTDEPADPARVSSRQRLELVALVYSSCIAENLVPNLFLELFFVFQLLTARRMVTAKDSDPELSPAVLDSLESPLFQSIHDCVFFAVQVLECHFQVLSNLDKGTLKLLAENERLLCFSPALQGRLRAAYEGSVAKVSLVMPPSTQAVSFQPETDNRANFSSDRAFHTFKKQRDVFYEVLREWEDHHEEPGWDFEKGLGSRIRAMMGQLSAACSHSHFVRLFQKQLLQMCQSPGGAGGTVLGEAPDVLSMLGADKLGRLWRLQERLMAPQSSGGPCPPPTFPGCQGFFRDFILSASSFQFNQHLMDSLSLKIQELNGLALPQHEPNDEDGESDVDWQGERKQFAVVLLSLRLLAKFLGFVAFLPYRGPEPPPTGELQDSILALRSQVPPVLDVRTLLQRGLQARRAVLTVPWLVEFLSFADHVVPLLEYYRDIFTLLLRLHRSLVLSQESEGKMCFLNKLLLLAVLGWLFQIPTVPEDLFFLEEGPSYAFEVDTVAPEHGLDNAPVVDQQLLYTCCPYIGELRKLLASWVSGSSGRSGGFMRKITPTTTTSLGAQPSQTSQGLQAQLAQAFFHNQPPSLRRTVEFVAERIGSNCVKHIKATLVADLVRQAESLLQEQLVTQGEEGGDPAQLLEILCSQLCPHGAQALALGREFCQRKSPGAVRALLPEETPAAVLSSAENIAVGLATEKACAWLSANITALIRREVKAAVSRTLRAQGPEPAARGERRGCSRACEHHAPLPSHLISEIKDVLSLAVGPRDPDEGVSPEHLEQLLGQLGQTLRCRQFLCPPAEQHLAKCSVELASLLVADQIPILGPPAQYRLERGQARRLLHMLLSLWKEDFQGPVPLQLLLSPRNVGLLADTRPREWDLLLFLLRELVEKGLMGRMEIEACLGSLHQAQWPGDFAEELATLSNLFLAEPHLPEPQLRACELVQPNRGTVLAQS

| binding [1] | binding [2] | Substance |
| --- | --- | --- |
| binds | binds | FLAG-ASF1B N > A (ASF1B with the NTD of ASF1A) (from UniProt Q9NVP2 1-202) |
| no binding | binds | FLAG-ASF1A N > B (ASF1A with the NTD of ASF1B) (from UniProt Q9Y294 1-204) |
| binds | binds | FLAG-tagged ASF1A (F-ASF1A) (from UniProt Q9Y294 1-204) |
| no binding | binds | FLAG-tagged ASF1B (F-ASF1B) (from UniProt Q9NVP2 1-202) |
